# Measurements from publication PMC12820563.
# Some of the results follow. The list includes weakly bound sequences.
# Target: T1, MBP-FoxP3dN (UniProt Q99JB6)
# T1 sequence: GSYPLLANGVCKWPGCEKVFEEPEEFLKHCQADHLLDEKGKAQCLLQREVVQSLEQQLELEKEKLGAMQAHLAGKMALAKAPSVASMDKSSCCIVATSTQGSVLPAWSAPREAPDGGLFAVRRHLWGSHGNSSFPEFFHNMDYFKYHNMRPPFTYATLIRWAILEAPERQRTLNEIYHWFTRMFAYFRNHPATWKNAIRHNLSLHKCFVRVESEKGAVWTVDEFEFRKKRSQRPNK
# Experiment: PD-seq (MBP pull-down with sequencing)
# Settings: 20 mM Tris-HCl pH 7.5, 100 mM NaCl, 1.5 mM MgCl2, 0.4 uM protein, 0.1 uM dsDNA library, 30 min, room temperature, amylose pull-down; high values mean tight binding; double strand, one strand shown
row,Sequence,binding signal (RPM ratio (pull-down/input))
1,GATGATTGTTCTCCCAGCTGATGAATTTAGCTACTCGAGTAAACAAATTTTCCTAATCTTTCTGTTCAAGCGCCATCTAC,1.83
2,GATGATTGTTCTCCCAGCTGATGAATTCTTCGTGTCGAGTAAACAAATTTTCCTAATCTTTCTGTTCAAGCGCCATCTAC,0.326
3,GATGATTGTTCTCCCAGCTGATGAATTCAGGATCTCGAGTAAACAAATTTTCCTAATCTTTCTGTTCAAGCGCCATCTAC,0.286
4,GATGATTGTTCTCCCAGCTGATGAATTGCGTGATTCGAGTAAACAAATTTTCCTAATCTTTCTGTTCAAGCGCCATCTAC,1.86
5,GATGATTGTTCTCCCAGCTGATGAATTCGACCAGTCGAGTAAACAAATTTTCCTAATCTTTCTGTTCAAGCGCCATCTAC,0.241
6,GATGATTGTTCTCCCAGCTGATGAATTCTAACGATCGAGTAAACAAATTTTCCTAATCTTTCTGTTCAAGCGCCATCTAC,0.317
7,GATGATTGTTCTCCCAGCTGATGAATTAGGTCAATCGAGTAAACAAATTTTCCTAATCTTTCTGTTCAAGCGCCATCTAC,0.289
8,GATGATTGTTCTCCCAGCTGATGAATTACAGCGATCGAGTAAACAAATTTTCCTAATCTTTCTGTTCAAGCGCCATCTAC,0.555
9,GATGATTGTTCTCCCAGCTGATGAATTAAAAAAGTCGAGTAAACAAATTTTCCTAATCTTTCTGTTCAAGCGCCATCTAC,0.175
10,GATGATTGTTCTCCCAGCTGATGAATTATGGCAGTCGAGTAAACAAATTTTCCTAATCTTTCTGTTCAAGCGCCATCTAC,0.623
11,GATGATTGTTCTCCCAGCTGATGAATTATAAAGTTCGAGTAAACAAATTTTCCTAATCTTTCTGTTCAAGCGCCATCTAC,0.282
12,GATGATTGTTCTCCCAGCTGATGAATTAAGATAGTCGAGTAAACAAATTTTCCTAATCTTTCTGTTCAAGCGCCATCTAC,0.401
13,GATGATTGTTCTCCCAGCTGATGAATTTACAGAATCGAGTAAACAAATTTTCCTAATCTTTCTGTTCAAGCGCCATCTAC,0.328
14,GATGATTGTTCTCCCAGCTGATGAATTGACCACATCGAGTAAACAAATTTTCCTAATCTTTCTGTTCAAGCGCCATCTAC,0.526
15,GATGATTGTTCTCCCAGCTGATGAATTATGTGCTTCGAGTAAACAAATTTTCCTAATCTTTCTGTTCAAGCGCCATCTAC,1.37
16,GATGATTGTTCTCCCAGCTGATGAATTATGACGCTCGAGTAAACAAATTTTCCTAATCTTTCTGTTCAAGCGCCATCTAC,0.68
17,GATGATTGTTCTCCCAGCTGATGAATTCACATCGTCGAGTAAACAAATTTTCCTAATCTTTCTGTTCAAGCGCCATCTAC,0.606
18,GATGATTGTTCTCCCAGCTGATGAATTCCGCGTTTCGAGTAAACAAATTTTCCTAATCTTTCTGTTCAAGCGCCATCTAC,3.73
19,GATGATTGTTCTCCCAGCTGATGAATTATTCTCCTCGAGTAAACAAATTTTCCTAATCTTTCTGTTCAAGCGCCATCTAC,0.308
20,GATGATTGTTCTCCCAGCTGATGAATTTACCAACTCGAGTAAACAAATTTTCCTAATCTTTCTGTTCAAGCGCCATCTAC,0.591
21,GATGATTGTTCTCCCAGCTGATGAATTCCGGAACTCGAGTAAACAAATTTTCCTAATCTTTCTGTTCAAGCGCCATCTAC,0.206

row,Sequence,binding signal (RPM ratio (pull-down/input))
1,GATGATTGTTCTCCCAGCTGATGAATTTAAGGGGTCGAGTAAACAAATTTTCCTAATCTTTCTGTTCAAGCGCCATCTAC,0.356
2,GATGATTGTTCTCCCAGCTGATGAATTTTCCGGGTCGAGTAAACAAATTTTCCTAATCTTTCTGTTCAAGCGCCATCTAC,0.139
3,GATGATTGTTCTCCCAGCTGATGAATTAGACGTATCGAGTAAACAAATTTTCCTAATCTTTCTGTTCAAGCGCCATCTAC,0.655
4,GATGATTGTTCTCCCAGCTGATGAATTTGGCTAGTCGAGTAAACAAATTTTCCTAATCTTTCTGTTCAAGCGCCATCTAC,1.03
5,GATGATTGTTCTCCCAGCTGATGAATTAGAAACCTCGAGTAAACAAATTTTCCTAATCTTTCTGTTCAAGCGCCATCTAC,0.26
6,GATGATTGTTCTCCCAGCTGATGAATTCAGAACGTCGAGTAAACAAATTTTCCTAATCTTTCTGTTCAAGCGCCATCTAC,0.243
7,GATGATTGTTCTCCCAGCTGATGAATTATTACACTCGAGTAAACAAATTTTCCTAATCTTTCTGTTCAAGCGCCATCTAC,0.537
8,GATGATTGTTCTCCCAGCTGATGAATTGACCGACTCGAGTAAACAAATTTTCCTAATCTTTCTGTTCAAGCGCCATCTAC,0.245
9,GATGATTGTTCTCCCAGCTGATGAATTCGATGACTCGAGTAAACAAATTTTCCTAATCTTTCTGTTCAAGCGCCATCTAC,1.45
10,GATGATTGTTCTCCCAGCTGATGAATTCTATAAGTCGAGTAAACAAATTTTCCTAATCTTTCTGTTCAAGCGCCATCTAC,0.287
11,GATGATTGTTCTCCCAGCTGATGAATTTTCTGTATCGAGTAAACAAATTTTCCTAATCTTTCTGTTCAAGCGCCATCTAC,0.456
12,GATGATTGTTCTCCCAGCTGATGAATTTCGGCTGTCGAGTAAACAAATTTTCCTAATCTTTCTGTTCAAGCGCCATCTAC,0.375
13,GATGATTGTTCTCCCAGCTGATGAATTCTCCACCTCGAGTAAACAAATTTTCCTAATCTTTCTGTTCAAGCGCCATCTAC,0.226
14,GATGATTGTTCTCCCAGCTGATGAATTGGCCTGATCGAGTAAACAAATTTTCCTAATCTTTCTGTTCAAGCGCCATCTAC,0.316
15,GATGATTGTTCTCCCAGCTGATGAATTTGGTACGTCGAGTAAACAAATTTTCCTAATCTTTCTGTTCAAGCGCCATCTAC,0.73
16,GATGATTGTTCTCCCAGCTGATGAATTTCCTTGTTCGAGTAAACAAATTTTCCTAATCTTTCTGTTCAAGCGCCATCTAC,0.417
17,GATGATTGTTCTCCCAGCTGATGAATTATCCCGGTCGAGTAAACAAATTTTCCTAATCTTTCTGTTCAAGCGCCATCTAC,0.208
18,GATGATTGTTCTCCCAGCTGATGAATTTTCACTCTCGAGTAAACAAATTTTCCTAATCTTTCTGTTCAAGCGCCATCTAC,0.317
19,GATGATTGTTCTCCCAGCTGATGAATTTGGCCTGTCGAGTAAACAAATTTTCCTAATCTTTCTGTTCAAGCGCCATCTAC,4.23
20,GATGATTGTTCTCCCAGCTGATGAATTGAGAGTTTCGAGTAAACAAATTTTCCTAATCTTTCTGTTCAAGCGCCATCTAC,1
21,GATGATTGTTCTCCCAGCTGATGAATTAACTCTATCGAGTAAACAAATTTTCCTAATCTTTCTGTTCAAGCGCCATCTAC,0.363

row,Sequence,binding signal (RPM ratio (pull-down/input))
1,GATGATTGTTCTCCCAGCTGATGAATTATGAAGCTCGAGTAAACAAATTTTCCTAATCTTTCTGTTCAAGCGCCATCTAC,0.35
2,GATGATTGTTCTCCCAGCTGATGAATTCTAAATCTCGAGTAAACAAATTTTCCTAATCTTTCTGTTCAAGCGCCATCTAC,0.283
3,GATGATTGTTCTCCCAGCTGATGAATTAATGCACTCGAGTAAACAAATTTTCCTAATCTTTCTGTTCAAGCGCCATCTAC,2.87
4,GATGATTGTTCTCCCAGCTGATGAATTAAGAGGCTCGAGTAAACAAATTTTCCTAATCTTTCTGTTCAAGCGCCATCTAC,0.443
5,GATGATTGTTCTCCCAGCTGATGAATTAACTTATTCGAGTAAACAAATTTTCCTAATCTTTCTGTTCAAGCGCCATCTAC,0.531
6,GATGATTGTTCTCCCAGCTGATGAATTTCGTACTTCGAGTAAACAAATTTTCCTAATCTTTCTGTTCAAGCGCCATCTAC,0.487
7,GATGATTGTTCTCCCAGCTGATGAATTCTAGCGATCGAGTAAACAAATTTTCCTAATCTTTCTGTTCAAGCGCCATCTAC,0.465
8,GATGATTGTTCTCCCAGCTGATGAATTACAGACGTCGAGTAAACAAATTTTCCTAATCTTTCTGTTCAAGCGCCATCTAC,0.361
9,GATGATTGTTCTCCCAGCTGATGAATTTCCGTCCTCGAGTAAACAAATTTTCCTAATCTTTCTGTTCAAGCGCCATCTAC,0.344
10,GATGATTGTTCTCCCAGCTGATGAATTGGCGATGTCGAGTAAACAAATTTTCCTAATCTTTCTGTTCAAGCGCCATCTAC,0.531
11,GATGATTGTTCTCCCAGCTGATGAATTTCGGCATTCGAGTAAACAAATTTTCCTAATCTTTCTGTTCAAGCGCCATCTAC,5.76
12,GATGATTGTTCTCCCAGCTGATGAATTACGAAAATCGAGTAAACAAATTTTCCTAATCTTTCTGTTCAAGCGCCATCTAC,0.209
13,GATGATTGTTCTCCCAGCTGATGAATTCTTTTCTTCGAGTAAACAAATTTTCCTAATCTTTCTGTTCAAGCGCCATCTAC,0.38
14,GATGATTGTTCTCCCAGCTGATGAATTTGGGAAGTCGAGTAAACAAATTTTCCTAATCTTTCTGTTCAAGCGCCATCTAC,0.212
15,GATGATTGTTCTCCCAGCTGATGAATTCTGGATCTCGAGTAAACAAATTTTCCTAATCTTTCTGTTCAAGCGCCATCTAC,0.276
16,GATGATTGTTCTCCCAGCTGATGAATTCAACCTCTCGAGTAAACAAATTTTCCTAATCTTTCTGTTCAAGCGCCATCTAC,0.388
17,GATGATTGTTCTCCCAGCTGATGAATTTCTAGAATCGAGTAAACAAATTTTCCTAATCTTTCTGTTCAAGCGCCATCTAC,0.163
18,GATGATTGTTCTCCCAGCTGATGAATTGCTGCAGTCGAGTAAACAAATTTTCCTAATCTTTCTGTTCAAGCGCCATCTAC,0.911
19,GATGATTGTTCTCCCAGCTGATGAATTTCATCCATCGAGTAAACAAATTTTCCTAATCTTTCTGTTCAAGCGCCATCTAC,0.429
20,GATGATTGTTCTCCCAGCTGATGAATTACGCTGATCGAGTAAACAAATTTTCCTAATCTTTCTGTTCAAGCGCCATCTAC,0.516
21,GATGATTGTTCTCCCAGCTGATGAATTCTACCATTCGAGTAAACAAATTTTCCTAATCTTTCTGTTCAAGCGCCATCTAC,0.417
